We go through 16 molecules from the supplement of paper PMC4604168 (melanoma cell lines).

Molecules are shown by their SMILES. This is one part of the list. Most values come without repeats; read them as rough.
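Also: cell number obtained by counting DAPI-stained nuclei in high-throughput microscope images with image analysis software, screen run in 1,536-well plates.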

The assay has as its system MeWo. The assay is described as follows: cell count relative to DMSO control; melanoma cells; higher = more viable cells. The settings on record: library dose: low library concentration; 72 h.
As for `C#Cc1cccc(Nc2ncnc3cc(OCCOC)c(OCCOC)cc23)c1` [erlotinib] + COc1cc2c(Oc3ccc4[nH]c(C)cc4c3F)ncnc2cc1OCCCN1CCCC1 [cediranib] (first compound 0.8 µM, partner dose 0.4 µM), the cell count was 95.2%.
Under `Clc1ccc(Nc2nnc(Cc3ccncc3)c3ccccc23)cc1` [vatalanib] + CCc1ccc(CCOc2ccc(CC3SC(=O)NC3=O)cc2)nc1 [pioglitazone] (first compound 2 µM, partner dose 2 µM) stands 86.6%; under `O=C(CCCCCCC(=O)Nc1ccccc1)NO` [vorinostat] + COc1cc2c(Oc3ccc4[nH]c(C)cc4c3F)ncnc2cc1OCCCN1CCCC1 [cediranib] (first compound 0.08 µM, partner dose 0.4 µM), 90.7%; under `Nc1cccc2c1CN(C1CCC(=O)NC1=O)C2=O` (stereo unspecified) [lenalidomide] + O=C(Nc1cccc(Cl)c1)Nc1ncc(CCNc2ncnc3ccsc23)s1 [SNS314] (first compound 1 µM, partner dose 0.0008 µM), 84.5%.
Consider `Nc1cccc2c1CN(C1CCC(=O)NC1=O)C2=O` (stereo unspecified) [lenalidomide] + O=C(CCCCCCC(=O)Nc1ccccc1)NO [vorinostat] (first compound 1 µM, partner dose 0.08 µM), for which the cell count amounted to 92.3%.
With `COCC[n+]1c2c(n(Cc3cnccn3)c1C)C(=O)c1ccccc1C2=O` + COc1cc(Nc2ncc(F)c(Nc3ccc4c(n3)NC(=O)C(C)(C)O4)n2)cc(OC)c1OC [Tamatinib] (first compound 0.0004 µM, partner dose 0.4 µM) the figure was 88.4%.
As for `O=C(CCCCCCC(=O)Nc1ccccc1)NO` [vorinostat] + O=C(O)c1ccc(-c2c[nH]c3ncc(-c4ccccc4)cc23)cc1C1CCCC1 [GSK650394] (first compound 0.08 µM, partner dose 0.16 µM), the cell count turned out to be 85.3%.
Under `Clc1ccc(Nc2nnc(Cc3ccncc3)c3ccccc23)cc1` [vatalanib] + O=C(O)C(=O)Nc1sc2c(c1C(=O)O)CCNC2 [TCS401] (first compound 2 µM, partner dose 1.66667 µM) stands 96%; under `Clc1ccc(Nc2nnc(Cc3ccncc3)c3ccccc23)cc1` [vatalanib] + COc1ccc(COc2ccc(Cc3cnc(N)nc3N)cc2OC)cc1 [GW2580] (first compound 2 µM, partner dose 1 µM), 79.4%; under `Clc1ccc(Nc2nnc(Cc3ccncc3)c3ccccc23)cc1` [vatalanib] + Oc1cc(-c2nc(-c3ccccc3)[nH]c2-c2ccncc2)ccc1Cl [L779450] (first compound 2 µM, partner dose 0.2 µM), 94.8%.
As for `Clc1ccc(Nc2nnc(Cc3ccncc3)c3ccccc23)cc1` [vatalanib] + O=C(O)c1ccc(-c2c[nH]c3ncc(-c4ccccc4)cc23)cc1C1CCCC1 [GSK650394] (first compound 2 µM, partner dose 0.16 µM), the cell count was determined as 72.9%.
Under `OCc1c[nH]c2ccccc12` [Indole-3-carbinol] + Cc1cc([N+](=O)[O-])ccc1NS(=O)(=O)c1cc(Cl)ccc1Cl [FH535] (first compound 0.8 µM, partner dose 1 µM) stands 94.6%; under `Clc1ccc(Nc2nnc(Cc3ccncc3)c3ccccc23)cc1` [vatalanib] + CC(C)(C)c1cnc(CSc2cnc(NC(=O)C3CCNCC3)s2)o1 [SNS-032] (first compound 2 µM, partner dose 0.01 µM), 90.9%; under `O=C(CCCCCCC(=O)Nc1ccccc1)NO` [vorinostat] + C[C@@H]1CCN(C(=O)CC#N)C[C@@H]1N(C)c1ncnc2[nH]ccc12 [CP690550] (first compound 0.08 µM, partner dose 1 µM), 91%.
Under `Cn1c(Nc2ccc(C(F)(F)F)cc2)nc2cc(Oc3ccnc(-c4ncc(C(F)(F)F)[nH]4)c3)ccc21` + O=C(O)c1ccc(-c2c[nH]c3ncc(-c4ccccc4)cc23)cc1C1CCCC1 [GSK650394] (first compound 0.08 µM, partner dose 0.16 µM) stands 70.2%; under `OCc1c[nH]c2ccccc12` [Indole-3-carbinol] + CCN(CC)CCCCNc1ncc2cc(-c3cc(OC)cc(OC)c3)c(NC(=O)NC(C)(C)C)nc2n1 [PD173074] (first compound 0.8 µM, partner dose 0.1 µM), 105%.
